Experimental data published in the supplement of paper PMC11417369.
± gives the standard deviation of the averaged measurements. Some of the results follow.

test system: PfAP2-LT AP2 domain (GST-tagged); assay: gcPBM binding intensity (ln(normalized median fluorescence intensity)); higher = stronger DNA binding
In short: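 Binding intensity values are the highest Masliner-normalised natural-log median intensity among replicate spots of either probe orientation. The binding step lasted 1 h in 1× PBS with 1% milk, 0.2 mg/ml BSA, 0.5% salmon testes DNA and 0.03% Triton X-100, using GST-tagged P. falciparum DNA-binding domains expressed in E. coli on an Agilent 4 × 180k array of primer-extended double-stranded 36-bp intergenic genomic probes plus negative controls. Alexa488 anti-GST antibody and a 488 nm scan detected bound protein.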

Sequence | gcPBM binding intensity (ln)
AAAATAAGAAATTGAAAAATTGAAAACAAAATTAAA [CACACA_negctrl_site1285] | 8.47 ± 0.58
TATAAATAAAAACACACACACATATATATATATATA [CACACA_site2319] | 9.88 ± 0.12
CCATTTTAAATATGCACACAGATGCACTAACCCATT [CACACA_site1883] | 9.18 ± 0.33
TTACAAATGTTTTACACACACATAATTGTATCAATT [CACACA_site6147] | 9.22 ± 0.38
ACTACTCCATTAAGTAGTACACAAAAAAAAAAAATA [XGTACX_site7031] | 8.51 ± 0.65
TAATAAAACATATATACACACATTATAAATACATAT [CACACA_site5014] | 9.17 ± 0.28
TTGGGGTATCTTCCTATGCACACTTGTTATGTACTA [CACACA_site831] | 9.23 ± 0.37
ATTATAGACACGCGCACACACAACAAAAAAAAAAAA [CACACA_site9180] | 9.73 ± 0.61
TTGCTCACAAGAAGCACACAAAAAAAGAAAAAAAAA [CACACA_site4047] | 8.72 ± 0.59
ATACTTTTAAATTGATGTACTTTATTTATAAGGTGA [XGTACX_site6746] | 8.48 ± 0.4
TTGATTACTAGAAATGCACACACTGATAAAATAAGG [CACACA_site4134] | 9.2 ± 0.32
TTTATACTTGTAAATGCACACATAAGATGCGACTAA [CACACA_site8662] | 8.94 ± 0.3
ATATCCTTAAAAGATACACACATATGAATATTTTGT [CACACA_site3847] | 9.05 ± 0.35
GTTTGTAAATATTTTACACACATATATATATATATA [CACACA_site1075] | 9.71 ± 0.14
GTTTTTTTATTTCATCGTACAAAAAAGAAGGCTTTA [XGTACX_site5291] | 8.34 ± 0.3
TAAATATGTATTCATACATGCACATATATATATATA [TGCATGCA_site584] | 9.36 ± 0.32
TTATATATTTATTTATGTACATATTTTTTTATTATA [XGTACX_site6115] | 8.91 ± 0.45
TTCACAAAATATTATTGTACATTAAAATATTTATAT [XGTACX_site2535] | 8.47 ± 0.42
TATAAAACGGATGAACAACAAATCATATGGCACAAA [TGCATGCA_negctrl_site608] | 9.14 ± 0.34
TACATGATATATCACACACACATATAAATATATATA [CACACA_site2831] | 9.55 ± 0.4
GAAAATTTCTTATTTTGTACACACAATAAATATTCA [XGTACX_site3267] | 8.77 ± 0.45
CAACATTCGTATATCACACATTTGCATGTTGTCAAT [CACACA_site4470] | 9.15 ± 0.4

Sequence | gcPBM binding intensity (ln)
GATTTAGTTATTTAAACATGCAATTTATATAGAATT [TGCATGCA_site47] | 8.34 ± 0.43
TATTTATACATACATACACACATATAGATTTATATT [CACACA_site7851] | 8.99 ± 0.41
TTATTTTTTATTATGTGTACATAACATCGCGATACA [XGTACX_site4359] | 8.97 ± 0.38
AAAACTTGTCAGAATGGACACACGAATTAAAGGCCT [CACACA_site1215] | 8.94 ± 0.36
ATATGATATATATTCGGTACACATATATATAAAGAG [XGTACX_site430] | 9.04 ± 0.5
TTTTTAATTTATTGTGTGCACACAACTATGAGTTTT | 9.63 ± 0.34
AAGTTTTCTTAAAATTGTACTTTTCAAAAATAATCT [XGTACX_site277] | 8.18 ± 0.38
ATTTAAATAATATTCACACACAAAATTATATTTTAA [CACACA_site219] | 8.77 ± 0.39
TATGTCAAATATATATGTACACAAATATACTATTAA [XGTACX_site2643] | 8.63 ± 0.51
ATAAAATATATATTAGTGCACTAAAGGAAAAAAAAT | 9.18 ± 0.51
AATATATATATTAGAGTGCACATAATTATTTGCTAA | 8.77 ± 0.37
AAAAATTTCATATTCACACACAAAAAAAAAAAATAT [CACACA_site1592] | 9.12 ± 0.5
TGATATATATATATATATATAACACACGCAAAAAAA [TGCATGCA_negctrl_site240] | 9.39 ± 0.26
ATAATCACAAATAATTGTACATTTTGTTATATATAT [XGTACX_site7704] | 8.82 ± 0.43
AATAAAAATTGGTAGGCACACATGGAACTATTAAAA [CACACA_site1257] | 9.05 ± 0.43
TATAAAAGGTAAGAGTGTACAAGTAAAAAATTTTTA [XGTACX_site771] | 8.89 ± 0.63
ATGAACTATATTAAATCACACATTATCATTTTATAT [CACACA_site4989] | 8.82 ± 0.43
ATTTTTTTTATGAGGTGTACTCATATAATAACTACA [XGTACX_site5074] | 8.62 ± 0.28
TATTTTTTTTTTTAATGTACAAACAAATTATGTTGG [XGTACX_site2873] | 8.46 ± 0.42
TTTTCTAAAGTAAGTTAAGATATGCAAAAAAAAGAA [GTGCAC_negctrl_site242] | 8.54 ± 0.44
ATATATATATATATATGTACACATTAATGTTTTTTT [XGTACX_site167] | 9.6 ± 0.13
TATCCCTTAGAATACACACCCATATGAGCGTGAACT [CACACA_site2951] | 8.81 ± 0.34
